# Source: PubChem BioAssay AID1508642 (National Center for Advancing Translational Sciences (NCATS), 2021)
# Among all 43,000 compounds or so, about 200 (0.47%) were called active. Roughly 12% stayed inconclusive and do not appear here. Calls come from the whole dose curve; as a rule, active = well fitted cell-killing curve with a large enough effect; inconclusive = small, poorly fitted or top-dose-only effect, or effect the other way; inactive = flat fitted curve, though single readings scatter. Some of the results follow.
# Assay: Cell viability qHTS assay in S16 Pmp22-F2sN cells; note: nearly all actives have a fitted effect of over 65% in size
# Settings: S16 Pmp22-F2sN Schwann cells viability, CellTiter-Glo, 24 h; series mostly up to 57.5 µM; activity change, negative = cytotoxicity: at the top concentration
# Summary of the method: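 S16 Pmp22-F2sN Schwann cells (500-1,000/well) in phenol-red-free DMEM with 10% FBS received 23 nL compound by pin tool for 24 h at 37 °C. Viability was then read as CellTiter-Glo luminescence after 15 min at room temperature.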
# % is set by controls: 0 for no effect and ±100 for the full control effect.
row,Compound,"activity change, negative = cytotoxicity"
1,COC(=O)c1scc(-c2ccc(C)cc2)c1S(=O)(=O)Nc1ccc(N(C)C)cc1,inactive: 12.5%
2,COc1ccc(-c2cn3c(n2)sc2cc(C(=O)Nc4cccc(OC)c4)ccc23)cc1,inactive: 9.59%
3,Cc1ccccc1NCc1cccn1-c1nnc(N2CCC(C)CC2)s1,inactive: -0.294%
4,CCOC(=O)C1=C(CN2CCN(c3ccccc3F)CC2)NC(=O)NC1c1ccc(Cl)cc1 (stereo not given),inactive: -21.6%
5,CC(CNC(=O)Cc1ccc(NC(=O)N2CCSc3ncccc32)cc1)c1ccccc1 (stereo not given),inactive: -0.549%
6,CC(C)CN(CCNC(=O)CN1C(=O)CSc2ccc(S(=O)(=O)N3CCOCC3)cc21)CC(C)C,inactive: 13.7%
7,Cc1ccc(NC(=O)Cn2c(=O)n(-c3ccccc3)c(=O)c3ccc(C(=O)NCc4ccc5c(c4)OCO5)cc32)c(C)c1,inactive: -4.07%
8,Cc1cccc(CNC(=O)c2ccc(NC(=O)N3CC(C)Sc4ccccc43)cc2)c1 (stereo not given),inactive: -5.66%
9,CCOC(=O)c1cccc(NC(=O)c2ccc3nc(Cc4ccccc4)oc3c2)c1,inactive: -3.58%
10,O=C(/C=C\c1ccc2c(c1)OCO2)NC1CC(=O)N(c2cccc(F)c2)C1 (stereo not given),inactive: 2.23%
11,O=C(Nc1c(-c2ccc(F)cc2)nc2ccccn12)c1ccccc1F,inactive: 2.27%
12,Cn1c(=O)n(C/C=C/c2ccccc2)c(=O)c2c1nc1n2CCN1c1ccccc1,inactive: -2.59%
13,CCCCOc1ccc(CNC(=O)C2COc3ccc(OC)cc3C2)cc1 (stereo not given),inactive: 6.25%
14,COc1ccc(S(=O)(=O)N(CC(=O)Nc2cccc(C(F)(F)F)c2)c2ccc(C)cc2)cc1,inactive: 2.42%
15,COc1ccc(CN(Cc2ccco2)c2cnc(S(C)(=O)=O)nc2C(=O)Nc2ccc(F)cc2)cc1,inactive: 2.7%
16,COc1ccc(OC)c(-c2csc(-c3c(N)c(C(=O)c4ccccc4)n4ccccc34)n2)c1,inactive: 3.85%
17,COC(=O)c1cccnc1-n1c(=O)c2cccnc2n(CC(=O)Nc2c(C)cc(C)cc2C)c1=O,inactive: 5.77%
18,O=C(Cn1ncn2nc(-c3cccs3)cc2c1=O)NCc1cccc(Br)c1,inactive: -7.84%
19,Cc1ccc(NC(=O)CN2C(=O)COc3ccc(S(=O)(=O)N4CCCCC4)cc32)cc1N(C)C,inactive: 13.7%
20,CCOc1ccc(C(=O)c2cn(CC(=O)Nc3ccc4c(c3)OCO4)c3ccc(OCC)cc3c2=O)cc1,inactive: 3.27%
21,COc1ccc(-n2c(=O)c3c(c4cc(OC)ccc4n3C)n(Cc3cc(C)ccc3C)c2=O)cc1,inactive: -0.315%
22,Cc1ccc(C)c(NC(=O)CSc2nc(-c3ccccc3)cc(=O)[nH]2)c1,inactive: -10.1%
23,COc1ccc(N2CCN(S(=O)(=O)c3c(C)[nH]c(=O)[nH]c3=O)CC2)cc1,inactive: 1.15%
24,COc1ccc(CCNC(=O)C(=O)Nc2ccc(C)cc2)cc1OC,inactive: 8.31%
25,CCN(C(=O)c1cc2cc3ccc(OC)cc3nc2o1)c1cccc(C)c1,inactive: -9.38%
